# In the BET-seq Pho4 binding data (Le et al. 2018):
# The other results are listed elsewhere or left out. These are noisy estimates, calculated here from bound and input reads.
# Target: T1, Pho4 (S. cerevisiae) (UniProt P07270)
# T1 sequence: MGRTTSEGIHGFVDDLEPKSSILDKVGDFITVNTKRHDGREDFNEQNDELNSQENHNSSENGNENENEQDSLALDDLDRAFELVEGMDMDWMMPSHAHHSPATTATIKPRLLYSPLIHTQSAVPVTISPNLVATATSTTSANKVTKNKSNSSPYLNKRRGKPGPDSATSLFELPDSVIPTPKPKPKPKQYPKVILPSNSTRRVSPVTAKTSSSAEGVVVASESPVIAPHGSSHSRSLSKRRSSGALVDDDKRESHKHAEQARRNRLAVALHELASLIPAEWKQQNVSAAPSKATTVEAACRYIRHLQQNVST
# Test: relative binding free energy (BET-seq); higher = weaker binding
# Settings: reference: library average
row,Sequence,relative binding free energy
1,TTTAACACGTGTCTTT,0.01 kcal/mol
2,CGTGTCACGTGATTTA,0.13 kcal/mol
3,TTGAGCACGTGTCAGG,-0.07 kcal/mol
4,TACTACACGTGGGTAG,-0.03 kcal/mol
5,AGTATCACGTGTCCGG,0.22 kcal/mol
6,CTGTTCACGTGTGATG,0.2 kcal/mol
7,TCTAGCACGTGTGTTA,-0.03 kcal/mol
8,GTGTTCACGTGTAGCG,0.27 kcal/mol
9,GTGTTCACGTGTCAGG,0.21 kcal/mol
10,GAGGACACGTGGAGAT,0.17 kcal/mol
11,GGTTCCACGTGATTGG,0.17 kcal/mol
12,ATTATCACGTGAGGCC,0.45 kcal/mol
13,GGCTGCACGTGGATGT,0.14 kcal/mol
14,TATTGCACGTGCAGAG,-0.04 kcal/mol
15,GGAAACACGTGTTTTG,-0.11 kcal/mol
16,CAGGTCACGTGCGTTA,0.14 kcal/mol
17,TACGTCACGTGAGTTA,0.24 kcal/mol
18,GAGATCACGTGGTGTG,0.14 kcal/mol
19,GGACGCACGTGTTGTT,-0.09 kcal/mol
20,CAGTGCACGTGGAGTT,0.04 kcal/mol
21,TATGGCACGTGGAGGA,-0.11 kcal/mol
22,AGGCGCACGTGGGTAG,-0.15 kcal/mol
23,TTCTACACGTGTGGAG,0.15 kcal/mol
24,AAGTCCACGTGGGGTT,-0.06 kcal/mol
25,GTATTCACGTGAAGAG,0.31 kcal/mol
26,TTGGGCACGTGAGGAG,0.21 kcal/mol

row,Sequence,relative binding free energy
1,GTGGTCACGTGATGGT,0.3 kcal/mol
2,TTTGGCACGTGTCACT,-0.09 kcal/mol
3,GGTGGCACGTGATAAG,0.07 kcal/mol
4,GGTCTCACGTGTGTAT,0.27 kcal/mol
5,ATGGGCACGTGTTGTC,-0.14 kcal/mol
6,GGAATCACGTGCTGTG,0.23 kcal/mol
7,GTGTACACGTGATTCT,0.33 kcal/mol
8,ATTAACACGTGCTTGT,-0.08 kcal/mol
9,GTGTTCACGTGAATCT,0.36 kcal/mol
10,AGAGACACGTGTTGTT,0.09 kcal/mol
11,CTGTACACGTGGGGCT,-0.06 kcal/mol
12,TGTATCACGTGTACTA,0.21 kcal/mol
13,TATCGCACGTGAGGGT,0.11 kcal/mol
14,GGCAACACGTGGGGCG,-0.05 kcal/mol
15,GGCAGCACGTGGTAGG,-0.05 kcal/mol
16,CGTAGCACGTGTGTTA,-0.14 kcal/mol
17,GAGTTCACGTGTTCGT,0.36 kcal/mol
18,TAGGTCACGTGGCATA,0.04 kcal/mol
19,AAGTACACGTGGCGTT,-0.08 kcal/mol
20,TGGTGCACGTGTATTA,0 kcal/mol
21,GGTCTCACGTGTGTCG,0.19 kcal/mol
22,TTAGACACGTGGGGCT,-0.15 kcal/mol
23,TGGGGCACGTGGTCGT,-0.18 kcal/mol
24,AATAGCACGTGTTGTA,-0.05 kcal/mol
25,GGGTGCACGTGAGTCA,0.16 kcal/mol
26,AAGGACACGTGTAGGA,-0.01 kcal/mol

row,Sequence,relative binding free energy
1,AGTTACACGTGTTATA,0.11 kcal/mol
2,TAATTCACGTGTATGA,0.28 kcal/mol
3,ATGATCACGTGGGACG,0.1 kcal/mol
4,TGGATCACGTGACTGT,0.32 kcal/mol
5,GCATTCACGTGGGAGT,0.15 kcal/mol
6,GATGTCACGTGGTGCG,0.11 kcal/mol
7,TGCGTCACGTGTTGGT,0 kcal/mol
8,CTTGGCACGTGAGGAT,0.01 kcal/mol
9,TTTCTCACGTGATATG,0.29 kcal/mol
10,TAGGTCACGTGGTTTA,0.06 kcal/mol
11,TTGTTCACGTGAGCGT,0.27 kcal/mol
12,TCTCTCACGTGTGTTT,0.25 kcal/mol
13,AGTTGCACGTGGCTGA,-0.02 kcal/mol
14,TTCATCACGTGTTGGC,0.13 kcal/mol
15,GAATGCACGTGCAGGT,0 kcal/mol
16,TCGATCACGTGGTAAG,0.18 kcal/mol
17,GGTCCCACGTGTGGTA,0.07 kcal/mol
18,TTTTTCACGTGATATA,0.18 kcal/mol
19,TGAATCACGTGGATTA,0.3 kcal/mol
20,TGAGTCACGTGGTTTT,0.16 kcal/mol
21,GTTAGCACGTGGACTT,0.04 kcal/mol
22,TGATTCACGTGTGTCA,0.21 kcal/mol
23,ATGATCACGTGGGTTG,-0.14 kcal/mol
24,GTTTTCACGTGCTGCT,0.33 kcal/mol
25,TCGGCCACGTGGTGTT,-0.2 kcal/mol
26,GAGGTCACGTGAACGG,0.39 kcal/mol

row,Sequence,relative binding free energy
1,AGCTCCACGTGGTTGG,0.05 kcal/mol
2,AGGGTCACGTGGAGCT,0.05 kcal/mol
3,ACAGGCACGTGTTTGG,-0.13 kcal/mol
4,CGGACCACGTGTGTGG,-0.03 kcal/mol
5,ATAGGCACGTGCGGGC,-0.11 kcal/mol
6,GGGCACACGTGTTTGG,0.04 kcal/mol
7,TTTCGCACGTGGTTTT,-0.13 kcal/mol
8,TAAGACACGTGGTTTT,0.05 kcal/mol
9,CTTGGCACGTGTCGCT,-0.06 kcal/mol
10,CGGTGCACGTGGGGCA,-0.18 kcal/mol
11,TTTTACACGTGCAGAT,0.19 kcal/mol
12,GGCTCCACGTGTGGGT,0.04 kcal/mol
13,TGGTCCACGTGGCTAG,-0.04 kcal/mol
14,AGGGGCACGTGGTGTC,-0.21 kcal/mol
15,TGTGTCACGTGTTGAG,0.16 kcal/mol
16,ATCTGCACGTGTTGCG,0.1 kcal/mol
17,AGTAACACGTGTATGT,-0.01 kcal/mol
18,GGTAACACGTGTTTGC,0.06 kcal/mol
19,CGATACACGTGTGTTT,0.09 kcal/mol
20,GGTAGCACGTGTTCTG,-0.06 kcal/mol
21,AGGTGCACGTGTCTTG,-0.09 kcal/mol
22,GAGATCACGTGTGATT,0.35 kcal/mol
23,CGTGTCACGTGCGTGA,-0.05 kcal/mol
24,AAGACCACGTGGTGGT,0 kcal/mol
25,GAAGTCACGTGTGGGT,0.21 kcal/mol
26,TGTTACACGTGTACAG,0.18 kcal/mol

row,Sequence,relative binding free energy
1,AAATTCACGTGAATGT,0.32 kcal/mol
2,TTTGGCACGTGTATGT,-0.05 kcal/mol
3,ATTGACACGTGGAGCG,0.19 kcal/mol
4,ATAGGCACGTGTCATG,-0.08 kcal/mol
5,ACTAGCACGTGTTGGG,-0.13 kcal/mol
6,TAGGACACGTGACGGG,0.12 kcal/mol
7,GGAGGCACGTGTAAGG,-0.02 kcal/mol
8,TTTCGCACGTGCAGGG,-0.08 kcal/mol
9,TCGGTCACGTGGATTT,0.31 kcal/mol
10,TCAGTCACGTGGTGCT,-0.06 kcal/mol
11,ATGTTCACGTGTCATT,0.33 kcal/mol
12,ATGTTCACGTGGTTGG,0.33 kcal/mol
13,TATGGCACGTGGCGGA,-0.22 kcal/mol
14,GCGTTCACGTGTGGTC,0.35 kcal/mol
15,GAGGTCACGTGCGAGG,0.01 kcal/mol
16,TCTGTCACGTGATTGA,0.26 kcal/mol
17,ATGGACACGTGTTTGG,0 kcal/mol
18,TTTATCACGTGTCGTG,0.1 kcal/mol
19,TTGTGCACGTGATTGG,0.25 kcal/mol
20,TTCAGCACGTGAGGTT,0.13 kcal/mol
21,AAGATCACGTGGGGTC,-0.03 kcal/mol
22,GTGTGCACGTGTATCG,0.07 kcal/mol
23,GGTTGCACGTGCATGT,-0.05 kcal/mol
24,GGAATCACGTGACTGT,0.37 kcal/mol
25,GTTAGCACGTGTGTGT,0.1 kcal/mol
26,GGGGACACGTGCGTTT,0.04 kcal/mol

row,Sequence,relative binding free energy
1,CGGTGCACGTGTGTTC,0.08 kcal/mol
2,TGTCTCACGTGGTCTG,0.17 kcal/mol
3,TTGATCACGTGGTAAT,0.23 kcal/mol
4,ATGCGCACGTGGGCGA,-0.2 kcal/mol
5,GTTTGCACGTGTTTAA,0.05 kcal/mol
6,GTAGACACGTGGGATT,-0.05 kcal/mol
7,CGTTACACGTGTGGAG,0.11 kcal/mol
8,TGGTACACGTGCTTTA,0.01 kcal/mol
9,ACATGCACGTGGGCGG,-0.25 kcal/mol
10,TGGTTCACGTGTAGTG,0.24 kcal/mol
11,GCATTCACGTGTGATT,0.39 kcal/mol
12,GAGGACACGTGGGATA,-0.06 kcal/mol
13,AGTCACACGTGTGTGT,-0.06 kcal/mol
14,CAATGCACGTGGAGGT,-0.18 kcal/mol
15,ATTCCCACGTGTGGGG,-0.04 kcal/mol
16,ATGTTCACGTGGCGGC,0.21 kcal/mol
17,AGGGTCACGTGGTACT,-0.08 kcal/mol
18,ACATGCACGTGTTGTT,-0.13 kcal/mol
19,CGTTGCACGTGGAATT,0.17 kcal/mol
20,AATTGCACGTGATGGT,0.12 kcal/mol
21,TCTGTCACGTGGTAGT,0.05 kcal/mol
22,ATACACACGTGAGGTT,0.33 kcal/mol
23,GGTGGCACGTGACGCT,0.06 kcal/mol
24,TCGGTCACGTGGGCAT,-0.02 kcal/mol
25,TTAAGCACGTGAATTT,0.29 kcal/mol
26,AATTACACGTGTCTGT,0.05 kcal/mol

row,Sequence,relative binding free energy
1,GGTAGCACGTGTGGGG,0.05 kcal/mol
2,GTGAGCACGTGAGTAA,0.17 kcal/mol
3,TGTTGCACGTGGGCCT,-0.1 kcal/mol
4,AGGATCACGTGTGGGT,0.2 kcal/mol
5,TAGGCCACGTGGCGGG,-0.17 kcal/mol
6,AGGGGCACGTGAGTTG,0.15 kcal/mol
7,TCATTCACGTGCGTGG,0.16 kcal/mol
8,CGGCGCACGTGGGGGC,-0.23 kcal/mol
9,ATTATCACGTGAGTGT,0.4 kcal/mol
10,CTCGGCACGTGAGGGG,0.03 kcal/mol
11,GGCTACACGTGTGTGA,0.16 kcal/mol
12,TTTATCACGTGATGAT,0.24 kcal/mol
13,GGTTTCACGTGTTATG,0.35 kcal/mol
14,TGGTTCACGTGTTGCT,0.21 kcal/mol
15,GGCGCCACGTGTAGTG,-0.01 kcal/mol
16,GAGAGCACGTGGATGT,-0.1 kcal/mol
17,TGGTCCACGTGAGTAT,0.17 kcal/mol
18,GTGCGCACGTGTGTTG,-0.01 kcal/mol
19,GGTCCCACGTGGGATG,-0.14 kcal/mol
20,TGTTACACGTGAGAGA,0.24 kcal/mol
21,TCGGACACGTGATTGG,0.3 kcal/mol
22,GGTAGCACGTGAAAGG,0.18 kcal/mol
23,GCGGGCACGTGTGTGT,-0.06 kcal/mol
24,TGTGTCACGTGATGCT,0.28 kcal/mol
25,GAGTTCACGTGCAGTG,0.25 kcal/mol
26,ATTTGCACGTGAGGTT,0.28 kcal/mol

row,Sequence,relative binding free energy
1,TAGTTCACGTGGAATG,0.35 kcal/mol
2,ATAGTCACGTGTGCGG,0.06 kcal/mol
3,ACGGGCACGTGTTGTA,-0.14 kcal/mol
4,GGTGACACGTGTCTAT,0.27 kcal/mol
5,TGTTCCACGTGAGGTG,0.2 kcal/mol
6,TTATGCACGTGGTTTG,-0.01 kcal/mol
7,TTAGCCACGTGAGTGG,0.24 kcal/mol
8,TCGTTCACGTGAGGGA,0.31 kcal/mol
9,AAAGACACGTGGGGCA,-0.04 kcal/mol
10,TTTCTCACGTGTGCAT,0.21 kcal/mol
11,TGAATCACGTGGGTGG,0.09 kcal/mol
12,GGGAGCACGTGGCGGT,-0.18 kcal/mol
13,TACGGCACGTGGGATA,-0.07 kcal/mol
14,GTTGGCACGTGAATCT,0.15 kcal/mol
15,TTGCTCACGTGTTAGA,0.08 kcal/mol
16,CGGTACACGTGTTTTG,0 kcal/mol
17,ATTTACACGTGATGTG,0.22 kcal/mol
18,ACGTTCACGTGGATTT,0.17 kcal/mol
19,GGTATCACGTGGTAGA,0.21 kcal/mol
20,TTTGTCACGTGTGAAG,0.09 kcal/mol
21,ATTGTCACGTGACTGA,0.19 kcal/mol
22,AAGAGCACGTGTAGTT,-0.07 kcal/mol
23,AGTGGCACGTGGGTGA,-0.21 kcal/mol
24,AGACGCACGTGGGGAA,-0.18 kcal/mol
25,GTCTTCACGTGTAAGG,0.34 kcal/mol
26,TACTGCACGTGATTGG,0.28 kcal/mol

row,Sequence,relative binding free energy
1,GGTCTCACGTGTGCTT,0.19 kcal/mol
2,CCATGCACGTGATGGG,0.17 kcal/mol
3,TGGCTCACGTGTTATA,0.31 kcal/mol
4,GGGTTCACGTGTCGCT,0.22 kcal/mol
5,TGCGTCACGTGGCGTT,0.09 kcal/mol
6,AGGGACACGTGAGTGT,0.17 kcal/mol
7,GATCACACGTGTGTGT,0.24 kcal/mol
8,TAACTCACGTGGGAGG,0.24 kcal/mol
9,CTGCGCACGTGGTGGG,-0.23 kcal/mol
10,TGGGACACGTGTGGAT,0.05 kcal/mol
11,TGGGCCACGTGGTATC,-0.02 kcal/mol
12,TAGCTCACGTGTGTGT,0.26 kcal/mol
13,TTAGGCACGTGTTCAA,-0.22 kcal/mol
14,AGTATCACGTGTTGAG,0.1 kcal/mol
15,TTTCTCACGTGGGGCG,0.2 kcal/mol
16,GAATGCACGTGTGTTA,0.04 kcal/mol
17,CGGTGCACGTGGGCAG,-0.35 kcal/mol
18,GGATGCACGTGTTTAA,0.08 kcal/mol
19,TTTTGCACGTGGAAAA,0.06 kcal/mol
20,GGATACACGTGTTATA,0.05 kcal/mol
21,ATTACCACGTGGGATT,0 kcal/mol
22,TAGGTCACGTGGGGGG,0.03 kcal/mol
